# Assay results from the supplement of paper PMC8728848.
# The list shows a part of the results.
# B1: PX9961H-bth-557-24-557 (Bacteroides thetaiotaomicron) (protein)
# chain: EETRTEVEKKNYMNNAEEAKDVLLGVYRTNTLDAMYGYYLSILFNLGTDISQVEGSGNENFRIIPTNSFPTTQSEVQQTWAALYTGIYRANDFLERISNKIGSYTTTDKKLATLYIAEARALRGMFYFELVRRFGNVVLMTSTQMSNQNPATYVQSAPEKVYEYIEDDLLYACDILPYATDDQYRESNDYRFSKGAALGLLTKVYATWAGYPVKDESKWEAAAKTARILVESGKHGLLKDYEQLWKNTCNGTWDPTESLIEISFYSPTVSGNSDPVGRIGKWNGVKTTAIAGVRGSCAANVKVVHTFVLDWREDVSDIRRDLSIANYQYTDTKKSLWVAGASDTDESAAEKDADPTKAQKNKQNYTPAKWDIQKYVTTNSFINNDKSNVNWYFLRYADVLLLYAEALNEWKHGPDAEAYNAINAVRRRGYGNPSNTSACDLPQGLDETSFREAVRKERSYELSFEGHRRQDLIRWGIYYKTVQATAKELGYWWEGTGSPNYSVATYTEEGKHELFPIPQRDMDLCIQFNQNPKW
# Legend:
# Experiment in all cases: glycan array binding signal (z-score within array); higher = stronger binding
# Details in all cases: glycan notation: IUPAC condensed, linker removed
# Neu5Ac(a2-3)GalNAc = biological target: Neu5Ac(a2-3)GalNAc
# How it was run: (§1)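 Arrays were curated from the Consortium for Functional Glycomics database, 3228 in total, and kept only where the protein sequence was available. Binding is expressed as a within-array Z-score. This score was averaged across arrays of the same protein sequence at different concentrations or buffers and across linkers, and negative values can be read as non-binding.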
# [1] = biological target: Neu5Ac(a2-3)GalNAc(b1-4)GlcNAc
# How it was run: as §1
# [2] = biological target: Neu5Ac(a2-3)[GalNAc(b1-4)]Gal(b1-4)Glc
# How it was run: as §1
# [3] = biological target: Neu5Ac(a2-3)[GalNAc(b1-4)]Gal(b1-4)GlcNAc
# How it was run: as §1
# [4] = biological target: Neu5Ac(a2-3)[GalNAc(b1-4)]Gal(b1-4)GlcNAc(b1-3)GalNAc
# How it was run: as §1
# [5] = biological target: Neu5Ac(a2-3)[Neu5Ac(a2-6)]GalNAc
# How it was run: as §1
# Neu5Ac(a2-6)Gal = biological target: Neu5Ac(a2-6)Gal
# How it was run: as §1
# [6] = biological target: Neu5Ac(a2-6)Gal(b1-3)GlcNAc(b1-3)[Gal(b1-4)GlcNAc(b1-6)]Gal(b1-4)Glc
# How it was run: as §1
# Neu5Ac(a2-6)Gal(b1-4)Glc = biological target: Neu5Ac(a2-6)Gal(b1-4)Glc
# How it was run: as §1
# [7] = biological target: Neu5Ac(a2-6)Gal(b1-4)GlcNAc
# How it was run: as §1
# [8] = biological target: Neu5Ac(a2-6)Gal(b1-4)GlcNAc(b1-2)Man
# How it was run: as §1
# [9] = biological target: Neu5Ac(a2-6)Gal(b1-4)GlcNAc(b1-2)Man(a1-3)Man(b1-4)GlcNAc(b1-4)GlcNAc
# How it was run: as §1
# [10] = biological target: Neu5Ac(a2-6)Gal(b1-4)GlcNAc(b1-2)Man(a1-3)[Gal(b1-4)GlcNAc(b1-2)Man(a1-6)]Man(b1-4)GlcNAc(b1-4)GlcNAc
# How it was run: as §1
# [11] = biological target: Neu5Ac(a2-6)Gal(b1-4)GlcNAc(b1-2)Man(a1-3)[GlcNAc(b1-2)Man(a1-6)]Man(b1-4)GlcNAc(b1-4)GlcNAc
# How it was run: as §1
# [12] = biological target: Neu5Ac(a2-6)Gal(b1-4)GlcNAc(b1-2)Man(a1-3)[GlcNAc(b1-4)][Neu5Ac(a2-6)Gal(b1-4)GlcNAc(b1-2)Man(a1-6)]Man(b1-4)GlcNAc(b1-4)GlcNAc
# How it was run: as §1
# [13] = biological target: Neu5Ac(a2-6)Gal(b1-4)GlcNAc(b1-2)Man(a1-3)[Man(a1-6)]Man(b1-4)GlcNAc(b1-4)GlcNAc
# How it was run: as §1
# [14] = biological target: Neu5Ac(a2-6)Gal(b1-4)GlcNAc(b1-2)Man(a1-3)[Neu5Ac(a2-3)Gal(b1-4)GlcNAc(b1-2)Man(a1-6)]Man(b1-4)GlcNAc(b1-4)GlcNAc
# How it was run: as §1
# [15] = biological target: Neu5Ac(a2-6)Gal(b1-4)GlcNAc(b1-2)Man(a1-3)[Neu5Ac(a2-6)Gal(b1-4)GlcNAc(b1-2)Man(a1-6)]Man(b1-4)GlcNAc(b1-4)GlcNAc
# How it was run: as §1
# [16] = biological target: Neu5Ac(a2-6)Gal(b1-4)GlcNAc(b1-2)Man(a1-3)[Neu5Ac(a2-6)Gal(b1-4)GlcNAc(b1-2)Man(a1-6)]Man(b1-4)GlcNAc(b1-4)[Fuc(a1-6)]GlcNAc
# How it was run: as §1
# [17] = biological target: Neu5Ac(a2-6)Gal(b1-4)GlcNAc(b1-2)Man(a1-6)Man(b1-4)GlcNAc(b1-4)GlcNAc
# How it was run: as §1
# [18] = biological target: Neu5Ac(a2-6)Gal(b1-4)GlcNAc(b1-2)Man(a1-6)[Gal(b1-4)GlcNAc(b1-2)Man(a1-3)]Man(b1-4)GlcNAc(b1-4)GlcNAc
# How it was run: as §1
# [19] = biological target: Neu5Ac(a2-6)Gal(b1-4)GlcNAc(b1-2)Man(a1-6)[GlcNAc(b1-2)Man(a1-3)]Man(b1-4)GlcNAc(b1-4)GlcNAc
# How it was run: as §1
# [20] = biological target: Neu5Ac(a2-6)Gal(b1-4)GlcNAc(b1-2)Man(a1-6)[Man(a1-3)]Man(b1-4)GlcNAc(b1-4)GlcNAc
# How it was run: as §1
# [21] = biological target: Neu5Ac(a2-6)Gal(b1-4)GlcNAc(b1-2)[Neu5Ac(a2-6)Gal(b1-4)GlcNAc(b1-4)]Man(a1-3)[GlcNAc(b1-4)][Neu5Ac(a2-6)Gal(b1-4)GlcNAc(b1-2)[Neu5Ac(a2-6)Gal(b1-4)GlcNAc(b1-6)]Man(a1-6)]Man(b1-4)GlcNAc(b1-4)GlcNAc
# How it was run: as §1
# [22] = biological target: Neu5Ac(a2-6)Gal(b1-4)GlcNAc(b1-2)[Neu5Ac(a2-6)Gal(b1-4)GlcNAc(b1-4)]Man(a1-3)[GlcNAc(b1-4)][Neu5Ac(a2-6)Gal(b1-4)GlcNAc(b1-4)Man(a1-6)]Man(b1-4)GlcNAc(b1-4)GlcNAc
# How it was run: as §1
# [23] = biological target: Neu5Ac(a2-6)Gal(b1-4)GlcNAc(b1-2)[Neu5Ac(a2-6)Gal(b1-4)GlcNAc(b1-6)]Man(a1-6)[Neu5Ac(a2-6)Gal(b1-4)GlcNAc(b1-2)Man(a1-3)][GlcNAc(b1-4)]Man(b1-4)GlcNAc(b1-4)GlcNAc
# How it was run: as §1
# [24] = biological target: Neu5Ac(a2-6)Gal(b1-4)GlcNAc(b1-3)Gal(b1-3)GlcNAc
# How it was run: as §1
# [25] = biological target: Neu5Ac(a2-6)Gal(b1-4)GlcNAc(b1-3)Gal(b1-4)GlcNAc
# How it was run: as §1
# [26] = biological target: Neu5Ac(a2-6)Gal(b1-4)GlcNAc(b1-3)Gal(b1-4)GlcNAc(b1-2)Man(a1-3)[Neu5Ac(a2-6)Gal(b1-4)GlcNAc(b1-3)Gal(b1-4)GlcNAc(b1-2)Man(a1-6)]GalNAc
# How it was run: as §1
# [27] = biological target: Neu5Ac(a2-6)Gal(b1-4)GlcNAc(b1-3)Gal(b1-4)GlcNAc(b1-3)Gal(b1-4)GlcNAc
# How it was run: as §1
# [28] = biological target: Neu5Ac(a2-6)Gal(b1-4)GlcNAc(b1-3)Gal(b1-4)GlcNAc(b1-3)Gal(b1-4)GlcNAc(b1-2)Man(a1-3)[Neu5Ac(a2-6)Gal(b1-4)GlcNAc(b1-3)Gal(b1-4)GlcNAc(b1-3)Gal(b1-4)GlcNAc(b1-2)Man(a1-6)]GalNAc
# How it was run: as §1
# [29] = biological target: Neu5Ac(a2-6)Gal(b1-4)GlcNAc(b1-3)Gal(b1-4)GlcNAc(b1-3)GalNAc
# How it was run: as §1
# [30] = biological target: Neu5Ac(a2-6)Gal(b1-4)GlcNAc(b1-3)Gal(b1-4)GlcNAc(b1-3)[Neu5Ac(a2-6)Gal(b1-4)GlcNAc(b1-3)Gal(b1-4)GlcNAc(b1-6)]GalNAc
# How it was run: as §1
# [31] = biological target: Neu5Ac(a2-6)Gal(b1-4)GlcNAc(b1-3)Gal(b1-4)GlcNAc(b1-6)[Gal(b1-3)]GalNAc
# How it was run: as §1
# [32] = biological target: Neu5Ac(a2-6)Gal(b1-4)GlcNAc(b1-3)Gal(b1-4)[Fuc(a1-3)]GlcNAc(b1-3)Gal(b1-4)[Fuc(a1-3)]GlcNAc
# How it was run: as §1
# [33] = biological target: Neu5Ac(a2-6)Gal(b1-4)GlcNAc(b1-3)GalNAc
# How it was run: as §1
# [34] = biological target: Neu5Ac(a2-6)Gal(b1-4)GlcNAc(b1-3)[Neu5Ac(a2-6)Gal(b1-4)GlcNAc(b1-6)]GalNAc
# How it was run: as §1
binder,measurement,setting,value
B1,glycan array binding signal (z-score),Neu5Ac(a2-3)GalNAc,-0.217
same,glycan array binding signal (z-score),[1],-0.348
same,glycan array binding signal (z-score),[2],0.293
same,glycan array binding signal (z-score),[3],-0.571
same,glycan array binding signal (z-score),[4],-0.338
same,glycan array binding signal (z-score),[5],-0.556
same,glycan array binding signal (z-score),Neu5Ac(a2-6)Gal,-0.101
same,glycan array binding signal (z-score),[6],-0.088
same,glycan array binding signal (z-score),Neu5Ac(a2-6)Gal(b1-4)Glc,-0.393
same,glycan array binding signal (z-score),[7],-0.248
same,glycan array binding signal (z-score),[8],-0.461
same,glycan array binding signal (z-score),[9],-0.496
same,glycan array binding signal (z-score),[10],0.436
same,glycan array binding signal (z-score),[11],0.077
same,glycan array binding signal (z-score),[12],-0.374
same,glycan array binding signal (z-score),[13],-0.405
same,glycan array binding signal (z-score),[14],-0.354
same,glycan array binding signal (z-score),[15],-0.217
same,glycan array binding signal (z-score),[16],-0.319
same,glycan array binding signal (z-score),[17],-0.491
same,glycan array binding signal (z-score),[18],-0.596
same,glycan array binding signal (z-score),[19],-0.061
same,glycan array binding signal (z-score),[20],-0.077
same,glycan array binding signal (z-score),[21],-0.327
same,glycan array binding signal (z-score),[22],-0.286
same,glycan array binding signal (z-score),[23],-0.503
same,glycan array binding signal (z-score),[24],-0.166
same,glycan array binding signal (z-score),[25],-0.41
same,glycan array binding signal (z-score),[26],0.218
same,glycan array binding signal (z-score),[27],-0.409
same,glycan array binding signal (z-score),[28],1.55
same,glycan array binding signal (z-score),[29],-0.503
same,glycan array binding signal (z-score),[30],-0.661
same,glycan array binding signal (z-score),[31],-0.46
same,glycan array binding signal (z-score),[32],-0.443
same,glycan array binding signal (z-score),[33],-0.41
same,glycan array binding signal (z-score),[34],-0.565
